Consider 7 molecules from patent US20260216242A1, “ALPP-SPECIFIC VARIANT ANTIGEN BINDING MOLECULES” (ALMAC DISCOVERY LIMITED, priority 2022, published 2026).

Numbering of substitutions follows the chain as printed. Numbers in names are those of the source.

B1: E06-hFc (S239C): E06 VHH fused via [G4S]3 linker to human IgG1 Fc with S239C (SEQ ID NO: 99) (protein)
chain: QVHLVESGGGLVQAGGSLRLSCAASRRSFSEYAMGWFRQAPGKEREFVAAIGWSGVIEYADSVKGRFTISRDNAKDTVYLQMNSLKPEDTAVYYCAAGLGIRVVSQTPAYWGQGTQVTVSSGGGGSGGGGSGGGGS[human IgG1 Fc with changes not spelt out]
B2: A06-hFc (S239C): A06 VHH fused via [G4S]3 linker to human IgG1 Fc with S239C (SEQ ID NO: 97) (protein)
chain: QVHLVESGGGLVQAGGSLRLSCAASGRTFLSMGWFRQAPGKEREFVAAISWTGGSTGYADSVKGRFTISRESDKETMYLQMNSLKPEDTAVYYCAARGDVYYGGDDATRYKYWGQGTQVTVSSGGGGSGGGGSGGGGS[human IgG1 Fc with changes not spelt out]
B3: D10-hFc (S239C): D10 VHH fused via [G4S]3 linker to human IgG1 Fc with S239C (SEQ ID NO: 98) (protein)
chain: QVQLVESGGGLVQPGGSLRLSCAASGSIFSVNTMGWYRQAPGKQRDLVAVATSGGTIHYADSVKGRFTISRDNAKNTVYLQMNSLKPEDTAVYYCNLVVPYGMIAGDHDYWGQGTKVTVSSGGGGSGGGGSGGGGS[human IgG1 Fc with changes not spelt out]
B4: C07-hFc (S239C): C07 VHH fused via [G4S]3 linker to human IgG1 Fc with S239C (protein)
chain: QVQLVESGGGLVQAGESLRLACAASGTIFSGNAVGWYRQAPEKQREWVSSITDYGDTDYAEAVKGRFTISRDNAKNTVYLQMNSLKPEDTAVYYCYVYQRGESEEYWGQGTQVTVSSGGGGSGGGGSGGGGS[human IgG1 Fc with changes not spelt out]
B5: E10-hFc (S239C): E10 VHH fused via [G4S]3 linker to human IgG1 Fc with S239C (SEQ ID NO: 100) (protein)
chain: QVQLVESGGGLVQAGGSLRLSCAVSGRALSDYNIGWFRQAPGKEREFVARKTWDGSSTRYDDSVKGRFTVSIEDAKNTAYLQMSSLKTEDTAVYYCAAGRYSRARGWEYDYWGQGTQVTVSSGGGGSGGGGSGGGGS[human IgG1 Fc with changes not spelt out]
B6: F05-hFc (S239C): F05 VHH fused via [G4S]3 linker to human IgG1 Fc with S239C (SEQ ID NO: 101) (protein)
chain: QVQLVESGGGLVQAGGSLRLSCAASGRAFGDYNIGWFRQAPGKEREFVARRTWDGSSTRYDDSVKGRFTVSIDNAKNTAYLQMNSLKTEDTAVYYCAAGRYSRVRGWEYDYWGQGTQVTVSSGGGGSGGGGSGGGGS[human IgG1 Fc with changes not spelt out]
B7: B01-hFc (S239C): B01 VHH fused via [G4S]3 linker to human IgG1 Fc with S239C (protein)
chain: QVQLVESGGGLVQAGGSLRLSCEVTRSPMPIDTMAWYRQAPGRQRELVAIISRSGSTNYADSVKGRFTISRNDTKSTMYKSTMYLKMNTLELEDTGVYYCNAVGLWNGAEYWGQGTQVTVSSGGGGSGGGGSGGGGS[human IgG1 Fc with changes not spelt out]

Sequence of Human ALPPL2 (P10696 with tags, fused parts or gaps): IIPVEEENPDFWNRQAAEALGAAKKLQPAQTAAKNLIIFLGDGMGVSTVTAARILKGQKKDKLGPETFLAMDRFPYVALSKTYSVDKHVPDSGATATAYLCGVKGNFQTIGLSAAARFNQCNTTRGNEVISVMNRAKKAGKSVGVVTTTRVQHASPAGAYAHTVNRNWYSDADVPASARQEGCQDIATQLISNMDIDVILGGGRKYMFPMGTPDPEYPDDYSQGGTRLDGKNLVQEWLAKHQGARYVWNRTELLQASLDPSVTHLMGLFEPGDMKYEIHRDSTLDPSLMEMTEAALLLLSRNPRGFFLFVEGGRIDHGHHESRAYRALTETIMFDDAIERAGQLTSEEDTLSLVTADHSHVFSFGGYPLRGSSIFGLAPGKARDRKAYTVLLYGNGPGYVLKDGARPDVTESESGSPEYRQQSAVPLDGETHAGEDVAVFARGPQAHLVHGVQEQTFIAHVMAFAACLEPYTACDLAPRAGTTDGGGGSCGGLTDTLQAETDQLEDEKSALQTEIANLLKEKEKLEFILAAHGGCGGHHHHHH

The experiment addresses Human ALPPL2 (Homo sapiens, UniProt P10696). In words: BLI binding kinetics, human ALPPL2 immobilised on AR2G sensors (KD / KD apparent). The note with it: VHH-hFc, KD apparent format. The method, then:
Binding kinetics were determined using the Biolayer Interferometry (BLI) Octet K2 system (Sartorius). Human ALPP, ALPPL2, ALPL (each fused with a cysteine stabilised leucine zipper) and ALPI, (SEQ ID NO: 265, SEQ ID NO: 266 and SEQ ID NO: 267 and SEQ ID NO: 264 respectively) were immobilised in sodium acetate pH5 buffer to AR2G sensors using amine coupling. All assays were conducted in PBS with a plate temperature of 25° C. Ka (M^−1s^−1), Kd (s^−1) and KD (nM) values were determined using Octet Data Analysis High Throughput software (ForteBio) for Biolayer Interferometry.
(§1) Binding kinetics were determined using the Biolayer Interferometry (BLI) Octet K2 or R4 system (Sartorius). Human ALPP, ALPPL2 and ALPL all fused with a disulphide stabilised leucine zipper (SEQ ID NO: 265, SEQ ID NO: 266, and SEQ ID NO: 267) and ALPI His (SEQ ID NO: 264) were used in BLI experiments. For KD apparent measurements, the ALPP proteins were immobilised in sodium acetate pH5 buffer to AR2G sensors using amine coupling. To measure 1:1 interactions, AHC biosensors were used to immobilise Fc-fused proteins. All assays were conducted in HBS-EP with a plate temperature of 25° C. Ka (M^−1s^−1), Kd (s^−1) and KD (nM) values were determined using Octet Data Analysis High Throughput software (Sartorius) for Biolayer Interferometry.
as §1, with “NO:264)” for “NO: 264)”
For the molecule B1, the “hALPPL2 Ka” value was 688000 M⁻¹ s⁻¹ and the “hALPPL2 Kd” value was below 1e-07 s⁻¹.
For B2 the same measures were 368000 M⁻¹ s⁻¹ and 0.000215 s⁻¹.
Regarding B3, the “hALPPL2 Ka” value stood at 187000 M⁻¹ s⁻¹ and the “hALPPL2 Kd” value was found to be 0.00186 s⁻¹.
For B4 the same measures were 253000 M⁻¹ s⁻¹ and 0.000114 s⁻¹.
For B5 the same measures were 288000 M⁻¹ s⁻¹ and below 1e-07 s⁻¹.
For B6 the same measures were 350000 M⁻¹ s⁻¹ and 0.0000106 s⁻¹.
For the molecule B7, the “hALPPL2 Ka” value stood at 308000 M⁻¹ s⁻¹ and the “hALPPL2 Kd” value stood at 0.00000618 s⁻¹.
